Source: publication PMC12040169 (PLOS Biology, 2025)
This is one part of the list.

tested on: T1, C. trachomatis L2/434/Bu expressing GFP (CTL2-GFP); set-up: species or system HeLa; C. trachomatis total inclusion area by high-content imaging, normalised to DMSO; conditions: total inclusion area; 28.5 h, 10 µM; inhibitor
T1 construct: L2/434/Bu GFP intracellular growth in HeLa cells
Method in brief: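 High-content images of fixed, Hoechst-stained infected cultures supply inclusion area and count (growth) plus nuclei number (viability), complementing bulk GFP/resorufin fluorescence. MIC determination is unchanged from the primary assay.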

Compound | % of control remaining
CSCC(CSC)OC(=O)Nc1ccc(Cl)cc1 [CBK086154] | 21.6429
CC(=O)Nc1ccc(-c2ccc(COC3CCN(C(=O)OC(C)(C)C)CC3)cc2)cc1 [CBK138215] | 47.574
Cc1cccc(S(=O)(=O)Nc2cc(OCCN3CCOCC3)c3occc3c2)c1 [CBK067420C] | 94.6908
COc1ccc(N2CCN(C(=O)CCC(=O)c3cccs3)CC2)cc1 [CBK091413] | 136.805
O=C(N[C@H]1CCN2C(=O)c3cc(-c4ccc5c(c4)OCO5)ccc3NC(=O)[C@H]12)C1CCCC1 [CBK289333] | 98.334
O=C(NCCc1nc2ccccc2[nH]1)c1cccc(Cl)c1 [CBK263514] | 87.7653
Cc1ccc(C(=O)N(Cc2ccncc2)C2CCCCC2)cc1C [CBK085386] | 91.6272
CC(=O)c1cc(C(=O)N(C)CCOc2ccccc2)cs1 [CBK282560] | 119.135
COc1ccc(/C=C/C(=O)Nc2cc(S(N)(=O)=O)ccc2C)cc1 [CBK262651] | 98.1959
CCOC(=O)C1CCN(CCC(=O)Nc2ccc(F)c(F)c2)CC1 [CBK264252] | 102.005
CN(Cc1cnn(C)c1)C(=O)c1ccc(Cl)cc1Br [CBK305404] | 59.2534
Brc1ccc(OCc2ccccc2)c(CNCCN2CCOCC2)c1 [CBK278171C] | 109.292
O=S(=O)(/N=C(/Nc1nccs1)c1ccccc1)c1cccs1 [CBK268709] | 105.925
Cc1c(-c2csc(CC#N)n2)sc2ccccc12 [CBK020828] | 59.952
COc1ccc(C)cc1C1(CNC(=O)N2CCC(C)(O)C2)CCOCC1 (stereo not shown) [CBK305452] | 121.738
O=[N+]([O-])c1cccc(S(=O)(=O)NCCCn2ccnc2)c1 [CBK266676] | 75.5619
CC1=C(C(=O)OCC(C)C)C(c2ccc(C)cc2)N2C(=O)C(C)SC2=N1 (stereo not shown) [CBK091646] | 61.6339
Cn1cc(CCNC(=O)Nc2ccc(N3CCCCC3)nc2)cn1 [CBK305656] | 72.548
Cc1nc2cc(C(=O)N(C)CCN3CCCCC3)ccc2n1C [CBK281854] | 113.15
CCN(CCN1CCOCC1)C(=O)c1[nH]c2c(F)cccc2c1C [CBK306772] | 93.1443
CCC(=O)Nc1nc2c(OC)ccc(C)c2s1 [CBK287616] | 83.0812
CC(C)c1ccc(CNC(=O)c2ccc(-c3ccoc3)nc2)cc1 [CBK156292] | 77.8874
O=C(O)CCC(NC(=O)c1ccc(I)cc1)C(=O)O (stereo not shown) [CBK087614] | 102.221
O=C(O)c1cccc(NC(=O)c2ccc(CSc3ccc(Br)cc3)cc2)c1 [CBK263226] | 104.445
CCCCOc1ccc(S(=O)(=O)n2ccc3cc(N4CCNCC4)ccc32)cc1 [CBK001315C] | 7.741
COc1cc([C@@]23CC[C@@H](NC(=O)Nc4ccc(F)c(F)c4)C[C@@H]2N(C)CC3)ccc1O [CBK049958C] | 79.6429

Compound | % of control remaining
Cc1nc(C)n(CC2CCCN(Cc3nc4c(F)cccc4[nH]3)C2)n1 (stereo not shown) [CBK306218] | 45.6082
NC(=O)NCc1ccc(F)cc1 [CBK019769] | 118.181
CC(=O)Nc1ccc(S(=O)(=O)NCCSc2ccccn2)cc1 [CBK263576] | 119.268
CSc1ncc(Cl)c(C(=O)Nc2nnc(C)s2)n1 [CBK268920] | 101.945
CC(C)Oc1ccc(C(=O)C2=C(O)C(=O)N(Cc3cccnc3)C2c2ccncc2)cc1 (stereo not shown) [CBK264920] | 113.144
O=C(Nc1cccnc1)C1CCN(C(=O)OCc2ccccc2)CC1 [CBK083187] | 90.5376
CCN(C(=O)Cn1c(C)cc(=O)c2ccccc21)C1CCOC(C)(C)C1 (stereo not shown) [CBK306797] | 41.4195
Cc1ncccc1-c1csc(C2CCCO2)n1 (stereo not shown) [CBK304121] | 100.716
COc1ncccc1C(=O)N1CCc2ccccc21 [CBK200402] | 72.2704
Cc1ccc2c(C)c(C(=O)Nc3ccc(S(N)(=O)=O)cc3)oc2c1 [CBK267661] | 108.165
O=C(O)CC(Cc1ccccc1)C(=O)Nc1ccc(F)cc1 (stereo not shown) [CBK286841] | 83.3941
N#Cc1ccc(-c2cccs2)nc1SCC(=O)Nc1ccc([N+](=O)[O-])cc1 [CBK066850] | 87.9106
CC(=O)N1CCC[C@H]2NC(=O)CNC(=O)C3(C/C=C/C[C@H]21)CCN(C(=O)c1ccon1)CC3 [CBK292057] | 78.3864
Cc1ccc(C2CCCN2C(=O)c2ccc(=O)n(CC(=O)NC3CCCCC3)c2)cc1C (stereo not shown) [CBK285982] | 110.817
c1csc(CNc2nccnc2-c2ccoc2)c1 [CBK036599] | 170.05
COc1ccc(OC)c(NS(=O)(=O)c2ccc(C(=O)O)cc2)c1 [CBK267603] | 93.4675
CCN1CC2(CCC1=O)CCN(c1ccnc(OC)c1C#N)CC2 [CBK307018] | 76.6221
Nc1ncc(-c2cc(C(F)(F)F)cc(C(F)(F)F)c2)nc1N1CCC[C@@H]1CO [CBK063501] | 88.8036
CC1=CC[C@H]2COC(CN3CCOC3C(C)C)[C@@H]1C2 (stereo partly shown) [CBK019189] | 102.473
CCOC(=O)c1sc(NC(=O)C2CCCCC2)nc1C [CBK057893] | 38.3549
COc1ccc(-c2cc(Nc3ccccc3)ncn2)cc1 [CBK090911] | 98.7172
CC(C)(C)C1=CC2=NC3(CCCCCCCCCCC3)[C@@H]3C[C@@H](O)[C@@H](O)[C@@H]3N2O1 [CBK303254] | 89.1102
COc1ccc(C(C)C)cc1-c1cncc(N2CCCCC2CCO)n1 (stereo not shown) [CBK037897] | 81.5066
Cc1cc(COc2nc3ccccc3nc2NCCCCO)no1 [CBK173985] | 89.1447
CC1CCCN(CC(C)NC(=O)Cn2cnc3ccc(F)cc3c2=O)C1 (stereo not shown) [CBK305953] | 72.9908
COC(=O)c1cccn2cc(CN3CCOCC3(C)C)nc12 [CBK304879] | 32.6449
